The values below come from PubChem BioAssay (NCI).

Test systems include K-562 leukemia; MOLT-4 leukemia; HL-60(TB) leukemia; SR leukemia; ACHN renal; CCRF-CEM leukemia; OVCAR-8 ovarian; HCT-116 colon; NCI/ADR-RES ovarian; MCF7 breast; HOP-62 NSCLC; A498 renal; HT29 colon; RXF 393 renal; A549 NSCLC; T-47D breast; NCI-H23 lung; DU-145 prostate; UO-31 renal; NCI-H226 lung; OVCAR-3 ovarian.
Holding throughout (test): NCI tumour cell line growth inhibition, 48 h

SMILES strings stand for the structures.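 Five compound concentrations were applied to cells in 96-well plates for 48 hours; endpoints were derived by simple linear interpolation of the resulting dose-response curve. GI50 marks 50% less growth.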 For part of its entries the source gives two or more results. This list holds those alone. There may be further records. For some of these results: A record mostly stands for its own series of concentrations, which the source does not state; a value can be the end of its range. For some of these results: The records of an entry are repeated measurements in other runs, samples, wells, individuals or studies. A tag in brackets gives the origin of a value. The letters are not those of the source and start again with each entry.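 TGI denotes the concentration required for complete inhibition of growth.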

Regarding `CC[n+]1c(/C=C/c2ccc(N3CCCC3)cc2)cccc1/C=C/c1ccc(N2CCCC2)cc1`, the GI50 was 31.7 nM and 621 nM in the assay with K-562 leukemia; 20.3 nM and 408 nM in the assay on SR leukemia. For the same molecule, the TGI is 613 nM and > 100 µM in the assay on MOLT-4 leukemia; 336 nM and > 100 µM in the assay with HL-60(TB) leukemia; 751 nM and > 100 µM in the assay on SR leukemia.

Regarding `CC[C@@]1(O)C(=O)OCc2c1cc1n(c2=O)Cc2cc3c(OC)cccc3nc2-1`, the TGI in the assay on ACHN renal was 31 nM [1 test] and 571 nM [mean of 3 tests]; in the assay on CCRF-CEM leukemia, 5.05 nM and 454 nM; in the assay on HOP-62 NSCLC it was 56.2 nM [1 test] and 641 nM [mean of 3 tests]; in the assay on A498 renal it was 91.7 nM and 2.06 µM; in the assay with MOLT-4 leukemia, 30.6 nM and 2.72 µM; in the assay with HL-60(TB) leukemia it was 15.4 nM and 245 nM. Besides, the TGI in the assay on RXF 393 renal is 21.3 nM and 1.95 µM. Besides, the GI50 was 7.67 nM [1 test] and 312 nM [mean of 3 tests] in the assay with OVCAR-8 ovarian; 21.5 nM and > 100 µM in the assay on HCT-116 colon; 7.09 nM and > 100 µM in the assay with NCI/ADR-RES ovarian; 5.41 nM and > 100 µM in the assay on MCF7 breast; 67 nM [1 test] and 847 nM [mean of 3 tests] in the assay with HT29 colon; 7.42 nM [1 test] and 262 nM [mean of 3 tests] with A549 NSCLC.

In the case of `Nc1cc2c(c3ccccc13)C(CCl)CN2C(=O)c1cc2cc(NC(=O)c3cc4ccccc4o3)ccc2[nH]1` (stereo not drawn), the TGI in the assay with T-47D breast is 237 nM and 35 µM. Besides, the GI50 with NCI-H23 lung was 0.786 nM and > 110 nM; with HOP-62 NSCLC it was 1.32 nM and > 110 nM; with DU-145 prostate it was 0.238 nM and > 110 nM.

On to `COc1cccc(Nc2ncnn3ccc(CN4CC[C@@H](N)[C@H](O)C4)c23)c1`, for which the GI50 in the assay with T-47D breast is 2.88 µM [sample A, mean of 2 tests] and 149 nM [sample B, mean of 2 tests].

Regarding `COC(=O)CC12CC(NC(=O)c3csc([C@@H](C[C@H](C(C)C)N(C)C(=O)[C@@H](NC(=O)[C@H]4CCCCN4C)C(C)C)OC(C)=O)n3)(C1)C2`, the TGI in the assay on NCI/ADR-RES ovarian was 585 nM and > 33.3 µM; in the assay on NCI-H226 lung, 481 nM and > 33.3 µM; with DU-145 prostate, 467 nM and 29.8 nM; in the assay with OVCAR-3 ovarian, 185 nM and 11.7 nM. In addition, in the assay with UO-31 renal, the GI50 was 31.4 nM and 860 nM.
